Assay results reported in PubChem BioAssay AID1671189 (National Center for Advancing Translational Sciences (NCATS), 2021).
The whole screen tested about 1,100 compounds, of which about 70 (6%) were called active. About 22% were inconclusive and are not listed. The call rests on the fitted dose curve; in most records, active means well fitted curve in the direction sought with a large enough effect; inconclusive means small, poorly fitted or top-dose-only effect, or another doubt; inactive means no such curve, though single readings can be large or run the other way. The list shows a part of the results.

Biological target: Polyunsaturated fatty acid lipoxygenase ALOX12 (Homo sapiens) (UniProt P18054)
Test: Confirmatory qHTS assay for inhibitors of human arachidonate 12S-lipoxygenase (ALOX12): Round 2
Conditions: purified human 12-LOX, xylenol orange absorbance; series mostly up to 125 µM; activity change, negative = inhibition: at the top concentration
Summary of the method: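 Purified human enzyme (150 nM) in 25 mM Hepes, 0.01% Triton X-100, pH 7.0, preincubated 15 min with compound, then 40 uM arachidonic acid for 30 min at room temperature. Hydroperoxide detected by Fe-XO, read as 573/405 nm absorbance ratio.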
On the % scale 0 is the no-effect control and ±100 the full control effect; potency means the concentration at half of the fitted maximal effect.

Sequence of UniProt P18054 (P18054 whole entry, looked up): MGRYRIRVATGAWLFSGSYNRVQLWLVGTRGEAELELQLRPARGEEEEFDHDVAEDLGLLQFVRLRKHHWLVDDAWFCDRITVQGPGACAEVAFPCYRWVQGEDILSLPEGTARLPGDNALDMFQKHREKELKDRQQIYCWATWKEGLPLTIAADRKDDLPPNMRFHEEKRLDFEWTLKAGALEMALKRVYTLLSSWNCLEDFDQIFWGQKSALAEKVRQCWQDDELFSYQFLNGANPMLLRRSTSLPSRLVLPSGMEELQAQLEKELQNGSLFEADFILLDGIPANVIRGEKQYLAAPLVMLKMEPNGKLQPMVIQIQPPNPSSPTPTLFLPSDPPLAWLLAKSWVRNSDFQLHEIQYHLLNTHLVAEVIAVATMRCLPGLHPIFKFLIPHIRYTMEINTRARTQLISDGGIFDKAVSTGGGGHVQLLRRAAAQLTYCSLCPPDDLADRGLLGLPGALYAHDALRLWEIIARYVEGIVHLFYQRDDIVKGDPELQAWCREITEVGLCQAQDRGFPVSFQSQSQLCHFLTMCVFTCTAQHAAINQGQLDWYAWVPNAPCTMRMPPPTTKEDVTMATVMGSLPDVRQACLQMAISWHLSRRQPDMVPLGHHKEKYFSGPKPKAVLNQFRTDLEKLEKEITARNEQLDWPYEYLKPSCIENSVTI

Activity change, negative = inhibition, inactive:
CCCN1CCC2(Cc3ccccc3CN(C(=O)Cc3ccc(O)cc3)C2)C1 (stereo unspecified) -35%, O=C1CCCN1CCCN1C(=O)[C@@H]2C[C@@H](O)CN2C2(CN(Cc3ccc(OC(F)(F)F)cc3)C2)C1=O -13% [at 64.5 µM], O=C1NC(=NC2CCCC2)C2(CCN(CC3CC3)C2)N1c1cccnc1 (stereo unspecified) -8.29%, COc1ccc([C@H]2C[C@@H](O)[C@@H](O)[C@@H]2NC(=O)Cc2ccc(Cl)cc2)cc1 0.548% [at 64.5 µM], CN1CC(=O)N(C2CNC2)Cc2c(NCC3CC3)ncnc21 -4.09%, C[S+](=O)([O-])N1Cc2ccccc2CC2(CCCN2CC2CCNCC2)C1 (stereo unspecified) -13.3%, Cn1ccnc1C(O)c1cc2n(n1)CCN(S(=O)(=O)C1CC1)C2 (stereo unspecified) 1.79% [at 64.5 µM], COc1cccc(N2C(=O)NC(=NC3CCCC3)C23CCN(Cc2ccsc2)C3)c1 (stereo unspecified) -22.4%, CN1CC(=O)N(C2CCCNC2)Cc2c(NC3CCCCC3)ncnc21 (stereo unspecified) -17.2%, CN1CC(=O)N(C2CCCNCC2)Cc2c1ncnc2N1CCN(c2ncccn2)CC1 (stereo unspecified) -7.46%, N#Cc1ccc(CN2CCC3(CC(c4cccc(C(F)(F)F)c4)=NO3)C2)cc1 (stereo unspecified) -30.1%, CNCc1cccn1C -7.18% [at 233 µM], O=C1c2ccccc2CN1C1CCN(Cc2cccc3ccccc23)CC1 -31%, O=C(NCCN1CCN(c2ccccc2)CC1)Nc1cccc(Br)c1 -20.6%, CC(C)NCC1(COc2ccc(C(F)(F)F)cn2)C[C@@H](O)[C@@H](O)C1 (stereo partly specified) 11.5% [at 64.5 µM], CC1C=CC(C)N1c1ncnc2c1CN(C1CCNCC1)C(=O)CN2C (stereo unspecified) -20.5%, C=CCNC(=O)c1cn2c(n1)CN(C(=O)c1ccccc1)CC2 -11.8%, C=CCNc1oc(-c2cccc3ccccc23)nc1C#N 1.51% [at 64.5 µM], O=Cc1cccc(N2CCN(C(=O)c3ccc4c(c3)OCO4)CC2=O)c1 -11%, CC(C)[S+](=O)([O-])N1CCN(c2ccc(Cl)nn2)C(=O)C1 -24.6%, CCN1CCCC2(Cc3ccccc3CN([S+](=O)([O-])c3ccccc3)C2)C1 (stereo unspecified) -6.93%, COc1cc(F)ccc1-c1ccc2c(n1)c(=O)ncn2CCC(F)(F)F 0.683% [at 64.5 µM], COc1ccc(CC(=O)N2Cc3ccccc3CC23CCCN(C(=O)CCCN)C3)cc1 (stereo unspecified) -15.4%, COc1ccc(CNc2ncnc3c2CN(C2CCCNC2)C(=O)CN3C)cc1OC (stereo unspecified) 6.62%, CN1CCC(C(=O)N2CCCC3(Cc4ccccc4CN3C(=O)c3ccccc3)C2)CC1 (stereo unspecified) -13.5%, NCCCC(=O)N1CCC2(CC1)CN(C(=O)Cc1ccc(Cl)cc1)CCO2 -4.66%, CCCN1CCC2(Cc3ccccc3CN(C(=O)CCCC(=O)O)C2)C1 (stereo unspecified) -17.1%, N#Cc1ccc(CN2CC(Oc3ccc(F)cc3F)C2)cc1 -10%, CN1CC(=O)N(c2cccc(F)c2)Cc2c1ncnc2N1CCC(F)CC1 -13.3%, COc1cccc([S+](=O)([O-])N2CCCC3(CC(c4cccnc4)=NO3)C2)c1 (stereo unspecified) -9.13%, CN(C)CCCC(=O)N1Cc2ccccc2CC2(CCCCN2CC2CCNCC2)C1 (stereo unspecified) -14.8%, Cc1ccc(CN2CCc3oc(C)c(C(=O)N4CCSCC4)c3C2)cc1 -4.93% [at 64.5 µM], O=C(c1cn2c(n1)CN([S+](=O)([O-])c1cccc(C(F)(F)F)c1)CC2)N1CCOCC1 5.83%, CCC(=O)N1Cc2ccccc2CC2(CCCN(CC3CCNCC3)C2)C1 (stereo unspecified) -7.83%, C[C@H]1c2cccc(O)c2C(O)=C2C(=O)[C@]3(O)C(O)=C(C(N)=O)C(=O)[C@@H](N(C)C)[C@@H]3[C@@H](O)[C@@H]21 -8.35%, CCOC(=O)N1CCC(NC)CC1 6.82%, NCc1ccccc1-c1ccc(O)cc1 -3.22%, O=C(N1CCOCC1)N1CCn2c(nnc2-c2cncc(Br)c2)C1 -22%, NCCCC(=O)N1CCC2(CC1)CC(NC(=O)CN)c1ccccc12 (stereo unspecified) -1.81%, COc1ccc(CCNc2ncnc3c2CN(C2CCCNC2)C(=O)CN3C)cc1 (stereo unspecified) -9.89%, O=C(Cn1ccc(=O)[nH]c1=O)N1C[C@H]2CC[C@@H]1CN(Cc1cscn1)C2 -1.78% [at 64.5 µM], CNC1CCCc2ccccc21 (stereo unspecified) -13.2% [at 233 µM], CN1CC(=O)N(C2CCNCC2)Cc2c(NCCc3cccc(F)c3)ncnc21 -18.2%, CN1CCC(C(=O)N2Cc3ccccc3OC3(CCN(C(=O)N(C)C)CC3)C2)CC1 -22.8%, COc1ccc(C(=O)N2CCOC3(CCN(C(=O)CCN)CC3)C2)cc1 8.03%, CC[C@@H](Nc1ncnc2c1CN(C1CCNCC1)C(=O)CN2C)c1ccccc1 -21.4%, O=C(c1ccc(C(F)(F)F)cc1)N1CCc2nc(C3CC3)nc(-c3ccc(Cl)cc3)c2C1 -19.2%, COc1ccc(-c2cnc([C@@H]3COCCN3C3CCN(C(C)=O)CC3)[nH]2)cc1 -0.777% [at 64.5 µM], C=CCNC(=O)[C@@H]1Cc2cn(CC#CC)c3cccc(c23)[C@H](CC(C)C)N1 24% [at 64.5 µM], CCc1nc2c(c(-c3ccc(OC)cc3)n1)CCN(Cc1ccc(OC)cc1)CC2 -27.7%, CC(=O)N1CCCN(c2ncnc3c2CN(C2CCNCC2)C(=O)CN3C)CC1 -15.8%, CN1CC(=O)N(C2CCCNCC2)Cc2c1ncnc2N1CCC(C#N)CC1 (stereo unspecified) -16.1%, O=C(O)c1cccc(-c2cnc3ccccc3c2)c1 -20.4%, Cc1ccc(CN2CCCC3(Cc4ccccc4CNC3=O)C2)cc1 (stereo unspecified) -14.8%, COc1ccc(-c2cc(C(=O)NC3CCNCC3)c3c(C4CCCN4)noc3n2)cc1 (stereo unspecified) -12.7%, Cc1cc(C)cc(CN2CCC3(Cc4ccccc4CNC3=O)C2)c1 (stereo unspecified) -13.7%, O=Cc1ccc(-c2ccc(C(=O)O)cn2)cc1 -24%, COc1ccc(-n2cc(-c3ccnc(N(C)Cc4cnccn4)n3)cn2)cc1 15.4% [at 64.5 µM], CN1CC(=O)N(C2CCNC2)Cc2c(NC3CCCC3)ncnc21 (stereo unspecified) -20.8%, COc1cccc(N2C(=O)NC(=NC3CCCC3)C23CCCN([S+](=O)([O-])c2ccccc2)C3)c1 (stereo unspecified) -19.6%, O=C(Nc1ccc(F)cc1)c1c[nH]c2cccnc12 -7.09%, CC(=O)NCCCC(=O)N1CCOC2(CCN(C(=O)CCCN)CC2)C1 -25.7%, O=c1cc(N2CCOCC2)oc2c(Nc3ccccc3)nccc12 -19.7% [at 64.5 µM]

Potency, active:
CCC(=O)NC(c1cc(Cl)c2cccnc2c1O)C1CC1 (stereo unspecified) 12.2 µM, O=C1Nc2ccccc2CN(CC2CCCCC2)C12CCNCC2 49.4 µM, O=C(NC1CCCCC1)O[C@@H]1CO[C@H]2[C@@H]1OC[C@@H]2n1nnnc1SCc1ccco1 7.08 µM
